From the supplement of paper PMC11417369
This is one part of the list.

system: PfSIP2 AP2 domain 1 (GST-tagged); assay: gcPBM binding intensity (ln(normalized median fluorescence intensity)); higher = stronger DNA binding
In short: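 GST-tagged P. falciparum DNA-binding domains, expressed in E. coli (about 25 μg on average), were applied for 1 h to an Agilent 4 × 180k array of primer-extended double-stranded 36-bp intergenic genomic probes plus negative controls. The binding buffer was 1× PBS with 1% milk, 0.2 mg/ml BSA, 0.5% salmon testes DNA and 0.03% Triton X-100. Bound protein was detected with Alexa488 anti-GST antibody and scanned at 488 nm. Binding intensity is the highest Masliner-normalised natural-log median intensity across replicate spots of either probe orientation.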

| Sequence | gcPBM binding intensity (ln) |
| --- | --- |
| TAAATTTTATAAATCTGTACATATGAGCAAGAACAT [XGTACX_site7400] | 7.39 |
| CACTTCAAAAAAATATGTACACATATATATATATAT [XGTACX_site3075] | 9.46 |
| ATTATGCACCAACACACACACACACCCCTAAAAAAT [CACACA_site2568] | 10.8 |
| TTTTTATGTTATCAAATAAATATAAATATAATTCAT [CACACA_negctrl_site1522] | 6.61 |
| TAAAGAGTTACCATTTGTACTTACGCACACATAAAA [XGTACX_site3145] | 6.95 |
| TATATTTGAAATATATGTACTTATAATACAGTTTAA [XGTACX_site8039] | 6.94 |
| CACAGATAAATTAACACACACACACGGATATTTATA [CACACA_site7788] | 6.95 |
| TTCCTTCAAAATTTAAGTAATAAGATAAAAATATAA [CACACA_negctrl_site1696] | 6.96 |
| ATGTATACAAATATATGTACGTATGTTCTCTTCTTT [XGTACX_site7865] | 6.92 |
| AATTTATATTAAAATTGTACATTTCTTCTATAATAC [XGTACX_site8639] | 6.94 |
| AATATATTTAATGAGTGTACATTATTTATTATTATT [XGTACX_site6889] | 6.86 |
| AAATAAAAAAAATAAAAGCAATCATAATAAAAATCT [CACACA_negctrl_site161] | 6.8 |
| TGTATGTATTTGTGTAGTACGCATAAGTAATAAAAC [XGTACX_site6704] | 7.84 |
| TACCAAAAGAAACACACACACAAAATATATAAATAT [CACACA_site1869] | 6.96 |
| TCCCATATATATATATATATATATATATATAATAAT [TGCATGCA_negctrl_site41] | 7.98 |
| ATACTTTTAATATGCACATGCAAATATGAAATATCG [TGCATGCA_site603] | 8.54 |
| TTTGGCTAGTCAAGTTGTACAAAAAAAAAAAAAAAA [XGTACX_site8382] | 7.01 |
| AAATATATATAAGCGTGTACACATTCTGAGTGTTGT [XGTACX_site1088] | 7.46 |
| ATAATAAAAATAAAATGTACATACATAAATATATAT [XGTACX_site6228] | 7.09 |

| Sequence | gcPBM binding intensity (ln) |
| --- | --- |
| TATCGTTTTATTCGGTTGCACCAAAAAAATAAAATA [GTGCAC_site9408] | 9.76 |
| AGCTATAATAAATATACACACATATATAAATATGTA [CACACA_site6583] | 6.84 |
| ATATATATATAATAAGTGCAAAAATAATGACCTATA | 8.89 |
| AAAAAAAATTAAAATAAAATATAAATATAAAATATA [GTGCAC_negctrl_site714] | 6.57 |
| TATATATTTTTATGCACACACAAAGAAAATTTTCCT [CACACA_site2863] | 7.94 |
| AAAGTATAACGGATACCATTTATGTGATTATTTTGT [XGTACX_negctrl_site188] | 6.87 |
| GAAATAATTTTTATTTGTACACACATACATATATAT [XGTACX_site1862] | 7.36 |
| AAATTTTATAAAGGAACACACATTTTTTTTTTTTCT [CACACA_site2368] | 6.71 |
| TTATTCATTTCGAAAAGTACAAATTCTGTTTATTAT [XGTACX_site6892] | 7.04 |
| CCACTAATTATGTGCACACAAATTAAAGGTCTACAA [CACACA_site4259] | 9.75 |
| TTTTGTCGGAAATCGGATAAGAAGAAAAAAAATAAT [GTGCAC_negctrl_site594] | 7.07 |
| AAAAAAAAAAAATACGTGCACTATGATATATTATAT | 10.3 |
| AAAAAAAAAAAAAGTACACACATACATATAAATATA [CACACA_site8533] | 7.64 |
| TTCACTCCATATTATACACACACACTAATGAAAAAA [CACACA_site8991] | 7.44 |
| ATAATATTTATAAATTGTACTAATGTTCAATAATTA [XGTACX_site7284] | 6.92 |
| AAATGAAAAATAAGGAAAAAAAAAAAAAAAAAAAAA [CACACA_negctrl_site1715] | 6.88 |
| TAAAATATTTCAAAGGTGCAATGATAATTTAAGACG [GTGCAC_site9609] | 10.4 |
| ATATTGACAGGAAAAATTTTCTTTGAATCTTTAAAA [CACACA_negctrl_site1191] | 6.79 |
| TATGTTATATTGGACACACACAATAAACATTATGTA [CACACA_site1657] | 7 |

| Sequence | gcPBM binding intensity (ln) |
| --- | --- |
| ATATATATATATAAGCGTACGCGTAGTTAAATTAAT [XGTACX_site7693] | 9.27 |
| ACAAAAAAAATAAGCACACATATATATATATATATA [CACACA_site816] | 9.39 |
| TACATGATAAGATGTAGTACATAAAAGAATAAATTA [XGTACX_site787] | 6.95 |
| TTTTCAAAAATATATACACACATGCATATTACGGTG [CACACA_site775] | 6.98 |
| ACGATAACATTTTTACGTACATATATTTTCACGGAG [XGTACX_site8764] | 7.24 |
| TATTCAATACTTAATGCACACAATAAAAAAAATATG [CACACA_site2467] | 8.1 |
| AAAAAAATAACAAAAGTGCATTTTTATGAGTTATCT | 9.41 |
| ATATATAATTAATAAAGTACATTAATTATTTCTTTT [XGTACX_site3034] | 6.77 |
| AGATACAAGCACTATAGTACACATACTAAAAATATA [XGTACX_site5849] | 7.3 |
| TATAATTAAAATTTGTGTACGTATGACAAAACATTT [XGTACX_site7072] | 6.85 |
| TTTCCTTACCCTTTCCTGGTGTAGAAATTATACTCT [TGCATGCA_negctrl_site116] | 7.12 |
| TTAAAATTTTTCAAAAGTACATAAATAATATATATT [XGTACX_site4694] | 7.21 |
| AATATATTATATATATGTACATAATGTGTAATACCT [XGTACX_site2845] | 7.22 |
| TTTATTTGTTCATGCGTGCACTTGATAACAATGTAC [GTGCAC_site9561] | 9.9 |
| GGAAAAAAATATAAAAGTACTTTTTATTTATTTTAT [XGTACX_site7418] | 6.96 |
| TTTTTTTTTGTTAAAGTGCATATATTAAATTTTCCT [GTGCAC_site9677] | 7.95 |
| AAAAAAAATTCATATTGTACTTTTAAATTAAAGAAA [XGTACX_site4521] | 6.78 |
| AGTGAATATCTAAAATGTACATAAATAAATAAATAA [XGTACX_site8293] | 7.32 |
| CGTTATATCAAAGGAGTGCATTATGAATACGTTTTA [GTGCAC_site9837] | 8.98 |
